Data reported in the RNAGym collection of RNA variant scans (doi:10.7554/elife.90254).
The source gives no read counts; variants with many changes may rest on few reads.

B1: LINE1-mini (parent)
chain: GGCAGAGCUCAACACAGCGUGGCAAAGUGGCUGUGGCUAGACUGCC

Variants of: B1
Assay: self-cleavage, relative activity (ratio to wild type); higher = more cleavage; in vitro, sequencing; the parent is a self-cleaving ribozyme

Row | Variant | self-cleavage
1 | A6U G7C G17C G35U G36A | 0.08
2 | A6G U9C A24G | 0
3 | A6G G19A G30U U38C A39G C45G | 0.3
4 | A6U C10G G22A C46U | 0.03
5 | A6U C8G C23G A25C U32A | 0.01
6 | G7A C13U A24C G44A | 0.21
7 | A6U U9A G19U G36U C46A | 0.09
8 | A6G U28G G30A C31G G40U | 0.03
9 | A6U G7A U43A | 0.07
10 | A6U G7C A25G G33A G36A | 0.14
11 | A6U U9G U38A G40U | 0.06
12 | A6U G27C G36A | 0.05
13 | A6U A24G A26C U28G C31U | 0.39
14 | G7A A26C U34C | 0.06
15 | A6U C13U A16C G27U G44U | 0.21
16 | A6U G7U U28C G30U A39U | 0.01
17 | A6U C31A G33U C37G | 0.02
18 | G7A C13G G17A G29C G44C | 0.05
19 | G7A C8G A24C | 0.11
20 | A6U G7A G36A | 0.21
21 | A6U G7A G36U | 0.07
22 | A6U C18G G19U A41U | 0.06
23 | A6U G27C U43A | 0.11
24 | A6U G21U G30C C42U C46A | 0.37

Row | Variant | self-cleavage
25 | G7A C8G A12U G27U G44U | 0.01
26 | G7A C8A U20G G33C | 0.05
27 | G7A C8A G17A C18A C46G | 0.27
28 | A6G G22U G30A | 0.29
29 | G7A C8A C13G G19U U20G | 0.55
30 | A6U A11C C15G A24C | 0.01
31 | A6U G29A G35A G40A | 0.1
32 | G7A C8G G35U C45G | 0.1
33 | A6U U9C C13G G30U C31A | 0.01
34 | A6G G22U U43G | 0
35 | A6G G33A G44U | 0.03
36 | G7A C13G G40U | 0.02
37 | A6G U9C A39C | 0.02
38 | A6G G7U C10U U43A | 0.01
39 | G7A C13G G17A U38C | 0.1
40 | A6G G27U C31U C46A | 0.02
41 | A6U U28C G44A | 1.87
42 | A6U C23G C37A | 0.16
43 | A6G G27U G35U | 0.09
44 | A6U C13A A25G | 0.16
45 | A6U C10A G33C C42U | 0.01
46 | A6U G27C U28A | 0.32
47 | A6G G19A G22C C23G C37U A39U | 0.02
48 | G7A A11U A26U | 0.07

Row | Variant | self-cleavage
49 | A6G G7U U34A | 0.01
50 | G7A A11C C18A G22C U32A G40U | 0
51 | G7A A12G U20C | 0.03
52 | A6G U34A A41C C42A | 0.02
53 | G7A A11U A24U G30A | 0.02
54 | G7A A12C G17A G40A | 0.08
55 | A6U C18U A41G | 1.17
56 | A6U A12U A25U A26G G44C | 0.34
57 | A6G G7U C10A | 0.01
58 | A6G G7U C10G | 0.01
59 | A6G G7U C10U | 0.05
60 | A6G G27C G33C | 0.02
61 | G7A A11U C31U U38A | 0.01
62 | A6U C8G C18G | 0.08
63 | A6U G7U C8G A26C G33U | 0
64 | A6G G21U G29C C37U | 0.02
65 | A6U G33A A39G U43A | 0.19
66 | A6U A14U G17C G22A U34A | 0.11
67 | G7A C10U G30A U34C C37U | 0.03
68 | A6U A11G C13A A14G | 0.01
69 | A6U U34G C37U C46A | 0.04
70 | A6U U20C C23U | 0.15
71 | A6U G35C C42U | 0.1
72 | G7A A24U U43G | 0.09

Row | Variant | self-cleavage
73 | A6U C13U G30A | 0.19
74 | A6U G22A C42U C45A | 0.24
75 | A6U C23A G40U | 0.36
76 | A6G G29A U38C G44U | 0.02
77 | G7A A11U G29U | 0.03
78 | G7A A11G G17C A39G G44U | 0.02
79 | A6U C10U G19A G35U U38A A39G A41C U43G | 0.07
80 | A6G U20C G29C | 0.04
81 | A6G G33A A39C A41G | 0.02
82 | A6U A12U A16C C42G | 0.02
83 | A6U G17A U38A | 0.1
84 | A6U U20G U32G G35A C46A | 0
85 | A6U G30C C37U | 0.14
86 | A6U G21U G44A | 0.46
87 | A6U C8G A12C G33U | 0.02
88 | G7A A16U G44U | 1.22
89 | G7A C13A C18G A25U G36U C37A | 0.07
90 | G7A A14C G36U | 0.16
91 | A6U A26C G36A C46A | 0.05
92 | G7A A14U C31U C45A | 0.55
93 | A6U G7A G22U C31U A39C | 0.11
94 | A6U C8U U34G | 0.58
95 | A6G G19C G29U | 0.05
96 | G7A A25U C45U | 0.11

Row | Variant | self-cleavage
97 | A6U C10A G36U | 0.05
98 | A6G G22A A25U U32G G35A C37A | 0.06
99 | G7A C13U A25U | 0.06
100 | G7A C10A A16U U38C | 0.02
101 | A6G G7U A11G G22U G33U C42A | 0.01
102 | A6G U9C U32A A39U C46U | 0
103 | A6U A16C A25U G27C | 0.09
104 | A6U C10A U38A | 0.05
105 | A6G U20G G30A U34C G36A G44U | 0.01
106 | A6G U9C A26G G29U U34G | 0.01
107 | A6U G7C C8G A14C U20C C37G | 0.14
108 | G7A C8U A12G G21A U43A | 0.24
109 | A6U G22U A39C G40C A41C | 0.1
110 | A6U C18A G27U A39C | 0.11
111 | A6U G7A A16U G21U G22A C42G G44A | 0.01
112 | G7A A16G G44A | 0.06
113 | A6G U9G G36U A39G C45G | 0.14
114 | A6G G7U A14G A25U U28C C37U | 0.06
115 | A6U A16C U28A G33A | 0.07
116 | A6U A14C C23U U28A G33C | 0.01
117 | A6U A12C A26U G30C C37U A39C | 0.01
118 | A6U C8G A14U C37U | 0.16
119 | A6G G19C A26U | 0.22
120 | G7A C8G C45G | 0.05

Row | Variant | self-cleavage
121 | A6U G36A U38G A41U | 0.04
122 | A6U C10A U28G G35U | 0.01
123 | A6G G7U G17U G22C A26C U38C G40U | 0.03
124 | A6G U9G G22C C31G | 0.05
125 | A6U A26C U28A | 0.67
126 | G7A C15G C31A | 0.54
127 | A6U C10G A16C U20C | 0.02
128 | A6U G27A G35A | 1
129 | A6G G7U G17C G21C | 0.03
130 | A6G G17U U28C U38A A41C C42U | 0.39
131 | A6U G7C G29U U38C | 0.08
132 | G7A C13U A25G G33U G35U | 0.03
133 | G7A A25G U38C | 0.01
134 | G7A A11U G21U A25C A41G | 0
135 | A6G U38G C42A | 0
136 | G7A A16G G17C G29U G36A C42A | 0.19
137 | A6G G17U G30C U38G | 0.02
138 | A6U G29U A39C | 0.15
139 | A6U C8U C10U A11U U28G G44C C45A | 0
140 | A6U A12G G40U | 0.08
141 | A6U C13U C23A C37A | 0.07
142 | A6U U9G G40A C42A | 0.06
143 | A6U U20G A24G | 0.37
144 | G7A C10A A39U G40C | 0

Row | Variant | self-cleavage
145 | G7A C13U C42U | 0.01
146 | G7A A14C G30A | 0.13
147 | G7A A12U G21C C37A | 0.01
148 | A6G G22U A39C | 0.02
149 | A6U U9G A39U | 0.22
150 | G7A C13G G30A | 0.2
151 | A6G U38C C42G | 0.33
152 | A6U U9C C18A A25U C37U C46G | 0.02
153 | A6U G21C C23A U38C C42U | 0.06
154 | G7A A11G G19C | 0
155 | G7A A11U A26C C37A C42A C45A | 0.01
156 | A6G U9G A11G C23U | 0.02
157 | A6U G7U C37G | 0.01
158 | A6U C15G U38C | 0.02
159 | A6U A16U G27U | 0.2
160 | A6U G17C G40C | 0.04
161 | A6G U9A A12C U20A A25G | 0.01
162 | A6G G19A C23U G27A U43C | 0.05
163 | A6G G33C A39C | 0.04
164 | A6G G17C A41C C42G | 0.03
165 | A6U A14U G35U | 0.06
166 | A6G G22U A24C A25G | 0.11
167 | A6G U9C G40U | 0
